Where “and” joins values, the source holds several entries; their conditions need not be identical. Identical values can stand only once.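 Values below derive from 48-hour exposures of cells grown in 96-well plates, with endpoints linearly interpolated between the two concentrations bracketing the appropriate inhibition level. At the GI50, growth is halved. TGI marks complete inhibition of growth.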 Peptide text beside a SMILES is read from it.
system: NCI-H322M lung; test: growth of human tumour cells (NCI), 48 h

| SMILES | GI50 | TGI |
| --- | --- | --- |
| COC(=O)Nc1nc2ccc(Oc3cccc(NC(=O)Nc4cc(C(F)(F)F)ccc4F)c3)cc2[nH]1 | 14.5 µM | > 25 µM |
| O=C1c2ccccc2N2Oc3ccccc3C12c1ccccc1 (stereo not given) |  | > 100 µM |
| O=C(NC(=Nc1ccccc1)SCCSC(=Nc1ccccc1)NC(=O)c1cccs1)c1cccs1 |  | > 100 µM |
| Cc1cn2c(/C=C3/C(=O)Nc4ccc(O)cc43)c(C)nc2s1 | 3.15 µM | 17.2 µM |
| C#CC1(O)CCCCCCCCC2(CCCCCCCC1)OCCO2 |  | 34.8 µM |
| CC(C)NC(=O)OCc1c2c(n(C)c1COC(=O)NC(C)C)-c1ccccc1CC2 |  | 32.6 µM |
| CCOC(=O)c1cc2c(n1Cc1cc(OC)c(OC)c(OC)c1)-c1oncc1CCC2 | 0.431 µM | > 100 µM |
| O=[N+]([O-])c1ccc(N2CCC(CCCC3CCN(c4ccc([N+](=O)[O-])cc4[N+](=O)[O-])CC3)CC2)c([N+](=O)[O-])c1 |  | 30.2 µM |
| CC1=C(C)SC(=C2Sc3nc(O)[nH]c(=O)c3S2)S1 |  | > 100 µM |
| Cc1nn(C)c(COc2ccc(N3CCN(S(=O)(=O)N(C)C)CC3)cc2)c1-c1cccc2c(CCCOc3cccc4ccccc34)c(C(=O)O)n(CCN3CCOCC3)c12 | 4.59 µM | 18.3 µM |
| O=[N+]([O-])c1ccc(NNN=Nc2ccc(-c3nc4ccccc4s3)cc2)c([N+](=O)[O-])c1 |  | 69.2 µM |
| COc1cc2c(cc1OC)[C@@H](Nc1ccc(F)cc1)C1COC(=O)[C@@H]1C2c1cc(OC)c(O)c(OC)c1 (stereo not given in full) |  | > 100 µM |
| CC(C)N(C(C)C)S(=O)(=O)C[C@]12CC[C@H](CC13OCC(CS(=O)(=O)c1ccccc1)O3)C2(C)C (stereo not given in full) |  | > 100 µM |
| O=C(O)C(CS)NCc1c2ccccc2nc2ccccc12 (stereo not given) |  | > 100 µM |
| Cc1[nH]c(=O)nc(Nc2ccc(Cl)cc2)c1C(=O)N1CCN(CCO)CC1 | > 100 µM | > 100 µM |
| CCOc1cc2c(c(OCC)c1O)CC[C@@H]1[C@@H]2CC[C@]2(C)[C@@H](O)CC[C@@H]12 |  | > 100 µM |
| CN1CCc2[nH]nc(-c3n[nH]c4c3CN(C)CC4)c2C1 |  | > 100 µM |
| CC1=C(C(=O)N[C@@H](CC(C)C)C(=O)O)N2C(=O)[C@@H](NC(=O)C(N)c3ccccc3)[C@H]2SC1 (stereo not given in full) |  | > 100 µM |
| Cc1nc2sccn2c1/C=C1/C(=O)Nc2cccc(Cl)c21 |  | > 100 µM |
| Cc1ccc(-c2nc3nc(-c4ccccc4)nc(N4CCNCC4)c3o2)cc1 | 0.807 µM | 2.12 µM |
| CC(C)(C)c1[nH]nc2c1C(c1cc3ccccc3[nH]c1=O)Nc1cc(C(=O)OCc3ccccc3)ccc1N2 (stereo not given) | 4.47 µM | > 100 µM |
| COC(=O)/C=C1/OC(c2ccc(OC)cc2)=C(Cl)C1=O |  | 50.7 µM |
| C=C1CC[C@@H]2[C@](C)(COC(C)=O)[C@H](OC(C)=O)CC[C@@]2(C)[C@@H]1CC(Nc1ccc(S(=O)(=O)Nc2ccc(Cl)nn2)cc1)C1=CCOC1=O (stereo not given in full) | 2.97 µM | 11.6 µM |

| SMILES | GI50 | TGI |
| --- | --- | --- |
| C#CCNCCN1C(=O)c2ccc3c4c(ccc(c24)C1=O)C(=O)N(CCNCC#C)C3=O | 2.58 µM | 20.4 µM |
| CC1=C(C(=O)N(C)c2ccc(Cl)c(C(=O)OC(C)C)c2)SCCO1 |  | > 100 µM |
| O=C1NOC(c2ccc(O)cc2)(c2ccc(O)cc2)c2ccccc21 | > 100 µM | > 100 µM |
| C[CH2][Sn]([CH2]C)([O]C(=O)c1ccccc1F)[O][Sn]([CH2]C)([CH2]C)[O]C(=O)c1ccccc1F | > 86.5 µM | > 100 µM |
| COC(=O)c1cc2ccccc2c2c3c(ccc12)OCO3 | 104 µM | 525 µM |
| COc1cnc2c(c1)C(=O)c1c-2n(CCCNC2=NCCS2)c(=O)c2cc(Cl)ccc12 | 1.54 µM | 3.68 µM |
| Cc1cnc(CNC(=O)c2c(=O)c3ccc(N4CCCN(C)CC4)nc3n3c2sc2ccccc23)cn1 | 10.7 µM | 25 µM |
| COc1cc2c(c(OC)c1OC)-c1ccc(SC)cc1C(O)CC2 (stereo not given) |  | > 100 µM |
| O=[N+]([O-])c1cc(Cl)cnc1Br |  | 25.2 µM |
| Cc1ccc(N/C(SCc2ccccc2)=C(\C(Cl)=C(Cl)Cl)[N+](=O)[O-])c(C)c1 |  | > 100 µM |
| COc1ccc(CC2(Cc3ccc(OC)cc3)CCOC2=O)cc1 |  | > 100 µM |
| Cn1cc(-c2csc(-c3cn(C)c4ccccc34)n2)c2ccccc21 |  | > 100 µM |
| Cc1ccc(N(C)S(=O)(=O)c2ccccc2[N+](=O)[O-])cc1 |  | > 100 µM |
| CCOC(=O)/C=C(/C)Nc1nc2c(c(C(=O)OC)c1C#N)CCCC2 |  | > 100 µM |
| CC(Cl)CC(=O)OCC1CCCN2CCCCC12 (stereo not given) |  | > 100 µM |
| COc1cc(OC)c(C(=O)/C=C/c2cccc(C#N)c2)c(OC)c1 | 1.49 µM | 5.62 µM |
| O=C(O)c1nc(-c2ccc(Cl)c(Cl)c2)nc2ccc(Cl)cc12 |  | > 100 µM |
| CC(=O)[CH-]C(=O)c1ccccc1.CC(=O)[CH-]C(=O)c1ccccc1.CC(=O)[CH-]C(=O)c1ccccc1.[In+3] | > 100 µM | > 100 µM |
| Cc1ccc(Nc2nc3c(=O)n(C)c(=O)n(C)c3nc2Nc2ccc(C)cc2)cc1 |  | 41.6 µM |
| CC[C@@]1(O)C(=O)OCc2c1cc1n(c2=O)Cc2c-1nc1ccccc1c2/C=N/NC(=O)c1ccc(N)cc1 |  | > 100 µM |
| CCOc1ccc(N/C(=C(/C(Cl)=C(/Cl)NC(C)(C)C)[N+](=O)[O-])n2nnc3ccccc32)cc1 |  | > 100 µM |
| CCc1ccc2c(c1)C(=O)c1c-2n(CCCN=[N+]=[N-])c(=O)c2cc(OC)c(OC)cc12 | > 100 µM | > 100 µM |
| CCOC(=O)C1CCCCN1C(=O)c1ccc(Nc2cnc3cc(C(F)(F)F)ccc3n2)cc1 (stereo not given) | 11.5 µM | 31.6 µM |

| SMILES | GI50 | TGI |
| --- | --- | --- |
| CN(C)CC1CCC2=C(C1=O)C(c1ccc(Cl)c(Cl)c1)C1=C(CCC(CN(C)C)C1=O)O2 (stereo not given) | 17.3 µM | 31.2 µM |
| CC(=O)N(C(C)=O)c1cc2c3c(c1)CCCN3CCC2 |  | > 10 µM |
| O=C1C(SCCO)=C(SCCO)C(=O)N1c1ccc(-c2ccccc2)cc1 | 10.6 µM | 37.1 µM |
| Nc1ccccc1C#C/C=C\C#Cc1cccc(O)c1 | 7.85 µM | 45.3 µM |
| COc1ccc(/C=C2\C[C@H]3[C@@H]4CCC5=CC(=O)CC[C@]5(C)[C@H]4CC[C@]3(C)C2=O)cc1OC |  | > 100 µM |
| CCn1cnnc1-c1nsc2ccccc12 |  | > 100 µM |
| N#Cc1c(O)c(/C=N/c2ncccn2)c(=O)n2c1[nH]c1ccccc12 |  | > 100 µM |
| O=c1cc(-c2cccnc2)[nH]c2cc3c(cc12)OCO3 |  | > 100 µM |
| C[C@@H]1CC[C@@]2(OC1)O[C@H]1C[C@H]3[C@@H]4CC[C@H]5C[C@@H](OC6OC(CO)C(OC7OC(CO)C(O)C(OC8OCC(O)C(O)C8O)C7OC7OC(CO)C(O)C(O)C7O)C(O)C6O)[C@H](O)C[C@]5(C)[C@H]4CC[C@]3(C)[C@H]1[C@@H]2C (stereo not given in full) |  | 25.7 µM |
| O=C1C(c2cnc3ccccc3n2)=C(O)c2ccccc21 |  | > 100 µM |
| CCOC(=O)C(Cl)(NC(=O)OCc1ccccc1)C(F)(F)F (stereo not given) |  | > 100 µM |
| O=C1CC(=O)NC(=NNS(=O)(=O)c2ccc(Cl)cc2)N1 |  | > 100 µM |
| c1ccc(CSC2(SCc3ccccc3)CCCCC2)cc1 |  | > 10 µM |
| COc1cc(C2c3cc4c(cc3[C@@H](NCCN3CCOCC3)C3COC(=O)[C@H]23)OCO4)cc(OC)c1O (stereo not given in full) |  | 31.7 µM and > 17.5 µM |
| CCCCCCCCCCCCCCCCCCOCC(O)COP(=O)(O)OCC1OC(n2ccc(N)nc2=O)C(O)C1O (stereo not given) |  | > 100 µM |
| COc1cc(/C=C/C(=O)c2ccc(F)cc2)ccc1OCCCN1CCN(CC(=O)Nc2ccc(Cl)cc2C(=O)c2ccccc2Cl)CC1 | 27.7 µM | > 100 µM |
| BrCC[N+]12CC[N+](CCBr)(CC1)C2 |  | > 100 µM |
| COc1ccc2nc3cccc([N+](=O)[O-])c3c(NCCCO)c2c1 | 0.0047 µM and 0.0229 µM |  |
| COc1ccc(NC(=S)c2ccoc2C)cc1CC(=O)OC(C)C |  | > 100 µM |
| CC(=O)OC(Cc1c(O)c2c(C)cccc2oc1=O)C(C)(C)O (stereo not given) |  | > 100 µM |
| CN(C)C(=O)c1cnc2oc3ccc(O)cc3c2c1-c1ccccc1 | > 25 µM | > 25 µM |
| ClCCCCCc1c2nc(c(CCCCCCl)c3ccc([nH]3)c(CCCCCCl)c3ccc([nH]3)c(CCCCCCl)c3nc1C=C3)C=C2 |  | > 100 µM |
| OC1CSc2nc3ccccc3n2C1 (stereo not given) |  | > 100 µM |

| SMILES | GI50 | TGI |
| --- | --- | --- |
| CCO/C=N/C1=C(C#N)SC2=N/C(=C\c3ccccc3)C(=O)N21 |  | > 100 µM |
| CC1(C)CC2CC(CC(C)(C)C2=O)C1=O |  | > 100 µM |
| O=S(=O)(c1cccc2c(I)cccc12)N1CCCNCC1 | 15.7 µM | 30.5 µM |
| COc1ccccc1CNCCCN1C(=O)c2ccc3c4c(ccc(c24)C1=O)C(=O)N(CCCN)C3=O | 1.86 µM | 3.61 µM |
| N#CNC(=NCCc1c[nH]c2ccccc12)Oc1ccccc1 |  | > 100 µM |
| CCSc1nc(SCC)c2c(-c3ccc(OC)c(OC)c3)c(C#N)c(SCC)nc2n1 | 22 µM | 79.1 µM |
| COC(=O)[C@H](Cc1ccc(O)cc1)NC(=O)[C@H](Cc1ccc(O)cc1)NC(=O)OC(C)(C)C (HELM PEPTIDE1{[CC(C)(C)OC(=O)[*:2]].Y.Y.[CO[*:1]]}$$$$V2.0) |  | > 100 µM |
| COc1cc(OC)c2[nH]c3c(O)c(-c4c(C)cc5c([nH]c6c(OC)cc(OC)cc65)c4O)c(C)cc3c2c1 |  | 16.4 µM |
| CCN1CN(c2ccccc2)C2(CCN(CC(CC3OCCO3)c3ccc(F)cc3)CC2)C1=O (stereo not given) |  | > 56.7 µM |
| O=c1oc2c(Cl)cc(Cl)cc2cc1C1=CSC2=NCCN12 |  | > 100 µM |
| Cc1cnc2sn(-c3ccc(Br)cc3)c(=O)c2c1 |  | > 100 µM |
| COc1cccc(NC(=O)CC(=O)N2N=C(N3c4ccccc4Sc4ccccc43)CC2c2ccccc2)c1 (stereo not given) |  | > 100 µM |
| CCOP(=O)(OCC)OC1c2[nH]cc(C(=O)OCc3ccccc3)c2-c2cc(C(=O)OC)[nH]c2C1OC (stereo not given) |  | > 100 µM |
| OCCn1cnc2c(SCc3ccccc3)ncnc21 |  | > 100 µM |
| Cc1[nH]c(=O)nc(NNCc2ccc(Cl)cc2)c1C(=O)Nc1ccc(Cl)cc1 |  | > 100 µM |
| O=C(c1ccc(Cl)cc1)N(C(=S)OCCOc1ccccc1)c1ccccc1 |  | 59.4 µM |
| CC(=O)O[C@H]1CCC2[C@@H]3CCC4c5nonc5CC[C@]4(C)C3CC[C@@]21C (stereo not given in full) |  | > 10 µM |
| NC(=O)NC12CC3CC(CC(F)(C3)C1)C2 |  | > 100 µM |
| COC(=O)C12OC3CO[Si](C(C)C)(C(C)C)O[Si](C(C)C)(C(C)C)OC3C1Oc1nc(=O)ccn12 (stereo not given) |  | 30.5 µM |
| COc1ccc(-c2oc3c(OC)c(OC)cc(O)c3c(=O)c2OC)cc1 |  | > 100 µM |
| CCC1NC(N=Nc2ccc([N+](=O)[O-])cc2)(P(=O)(OC(C)C)OC(C)C)OC1=O (stereo not given) |  | > 100 µM |
| COc1ccc(C(=O)/C=C/c2cccc(Nc3ccnc4cc(Cl)ccc34)c2)cc1 | 2.69 µM | > 100 µM |
| CC(=O)[O][Sn]([CH2]c1ccccc1)([CH2]c1ccccc1)[CH2]c1ccccc1 | > 5.37 µM | > 6.64 µM |

Source: PubChem BioAssay (NCI)
